# Source: the supplement of paper PMC3334620
# In all, about 33,000 sequences were measured (“E-score (-0.5 to 0.5)”: median about -0.035, highest 2% from about 0.34 on). This is one part of the list.
# Target: T1, Mot3 (UniProt P54785)
# T1 sequence: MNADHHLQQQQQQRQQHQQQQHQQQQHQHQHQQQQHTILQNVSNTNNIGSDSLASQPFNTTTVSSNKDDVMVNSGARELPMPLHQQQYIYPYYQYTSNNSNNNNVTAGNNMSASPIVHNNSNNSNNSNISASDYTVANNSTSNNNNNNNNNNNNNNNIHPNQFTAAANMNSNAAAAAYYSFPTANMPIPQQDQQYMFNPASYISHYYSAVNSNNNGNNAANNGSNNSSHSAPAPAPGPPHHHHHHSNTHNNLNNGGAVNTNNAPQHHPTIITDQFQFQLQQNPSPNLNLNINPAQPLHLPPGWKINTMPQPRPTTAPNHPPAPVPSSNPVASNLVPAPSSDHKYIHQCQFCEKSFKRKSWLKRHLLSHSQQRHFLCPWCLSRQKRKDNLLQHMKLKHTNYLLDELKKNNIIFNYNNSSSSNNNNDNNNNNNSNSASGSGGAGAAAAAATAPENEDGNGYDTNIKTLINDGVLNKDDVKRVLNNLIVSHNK
# Test: PBM E-score (8-mer binding enrichment) (E-score (-0.5 to 0.5)); higher = stronger / more preferred TF binding; most listed sequences are background and not binding sites
# Settings: protein concentration: 200 nM; construct: GST-full length
# Procedure, shortened: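 Bound GST-tagged yeast transcription factors, applied at about 100-200 nM to double-stranded universal all-10-mer Agilent arrays, were detected with fluorescent anti-GST. Scans were normalised with masliner. A modified Wilcoxon-Mann-Whitney statistic, the E-score, was assigned to each ungapped eight-base word pooled with its reverse complement by the Universal PBM Analysis Suite.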
row,Sequence,PBM E-score
1,AAGGCAGT,-0.0323
2,GTGGGTCA,-0.172
3,AAGCCGTA,-0.0365
4,CTGCTAAG,-0.191
5,AGACCGAA,-0.103
6,GAATAGAA,0.0182
7,ACGTACGG,-0.163
8,GATATCGC,0.0283
9,ACGCATGG,-0.0183
10,AATCAGCT,0.0802
11,CGTGACGC,-0.00805
12,CAAACCCC,-0.0949
13,AACAGCGT,0.0789
14,CTGAGGCC,-0.214
15,TGCTAGAA,0.0762
16,GTCTCCTA,-0.102
17,GATCGGAA,-0.105
18,ATTAACTG,0.12
19,GATAATGC,0.0501
20,ACAAAGAA,0.23
21,GAATAAGC,-0.215
22,AGCCTTGA,0.0646

row,Sequence,PBM E-score
1,ATCGGTAA,-0.122
2,AGGCACAG,0.491
3,CAGACACA,0.0491
4,AGTTGCTA,0.149
5,CTAGGGTC,-0.0138
6,CACGGGCG,-0.101
7,TCACTCGA,-0.158
8,CGAGGCAA,0.318
9,CGAATAAA,-0.101
10,TATGCGGA,-0.205
11,ACGGATTC,0.079
12,AGCTCGGA,-0.208
13,CAGGGACA,0.0375
14,GTATTTCA,0.211
15,CGCACGCA,-0.03
16,ACAGACAA,0.17
17,CCTACTTA,0.141
18,GCTGGCCA,-0.178
19,GAGCTCAC,-0.221
20,CAATGTGA,0.154
21,ATCTACAG,0.0501
22,AGACGGGC,-0.136

row,Sequence,PBM E-score
1,AAGTCTCT,-0.138
2,CGCTGGGA,-0.211
3,AAATATCG,0.0559
4,ACCATCCT,0.0451
5,TCTGTAAA,0.231
6,ACCAAGGT,-0.00664
7,CACCCCAC,-0.163
8,TAGGAAGA,-0.115
9,CGTTGTTA,0.187
10,GAGGCGCC,-0.301
11,CAACTACG,0.118
12,CGAGTACG,-0.0642
13,AGTGTTGG,-0.122
14,ATTTAGGG,-0.121
15,AGAATAGA,-0.0292
16,ACCAGCAT,-0.0925
17,ACGCATTA,0.159
18,AGGATACT,-0.12
19,CGGATGTC,-0.29
20,ACGGAAGT,-0.22
21,AACGTTCT,0.0512
22,ATGCCATA,-0.00348

row,Sequence,PBM E-score
1,AGAGGGCT,-0.181
2,CCGTCACC,-0.329
3,ACATCAGG,0.161
4,GATCGGCA,-0.285
5,CACTATCC,-0.329
6,CCGATGGC,-0.197
7,AAAAAAGC,0.13
8,AATGGTCA,-0.111
9,GCTGAATA,0.141
10,CGCGACCC,-0.124
11,TGCTAAAA,0.0711
12,CAATTCTG,0.0205
13,TCGACAGA,-0.108
14,ACTTGCAA,0.0581
15,AAGGTAAC,0.339
16,TGGGCACA,0.356
17,ATGGGCAA,0.121
18,GTGTGAAC,0.153
19,AACCCTGT,0.0849
20,ATTGTTTG,0.0654
21,TCAGTTCA,-0.0694
22,GGGAGAAC,-0.2

row,Sequence,PBM E-score
1,TAGATCGA,-0.105
2,AGCCCTTG,-0.0922
3,GATTGCTA,-0.115
4,CTTCTAGC,-0.101
5,CATGGAAC,-0.0907
6,GGATGAAA,-0.138
7,CTCAAGAA,-0.0846
8,CCACTGCC,-0.207
9,AGAAGTGA,-0.0786
10,ATCTTAGC,-0.0857
11,AACACCAT,0.122
12,ACAAAAAT,0.094
13,CCGAAGGC,0.275
14,GATAGCGC,0.0929
15,AGATGGCC,-0.179
16,ACTACTCG,0.0849
17,CGGCGTAC,0.0545
18,ATAACGCG,0.199
19,AACGCAAA,0.0196
20,GCATTAAA,0.264
21,TCTTCTAA,-0.0123
